{
  "source": "PubChem BioAssay AID504706",
  "about": "(National Center for Advancing Translational Sciences (NCATS), 2011)",
  "note": "In all, about 320,000 compounds went through this assay and about 200 (0.062%) were called active. This list was built around the results that the source calls inconclusive (neither active nor inactive); the mix of calls is not that of the screen. Calls come from the whole dose curve; as a rule, active = well fitted activation curve with a large enough effect; inconclusive = small, poorly fitted or top-dose-only effect; inactive = no such curve, though single readings can be large or run the other way. Potencies of inconclusive entries are left out as doubtful fits. Potency is the fitted concentration of half-maximal effect; tags give direction and shape of the fitted curve.",
  "data": [
    {"experiment": "qHTS assay for re-activators of p53 using a Luc reporter; note: nearly all actives have a fitted effect of over 45% in size", "conditions": "H1299 p53-A138V BP100-luciferase reporter, luminescence, 24 h; series mostly up to 92.2 µM", "outline": "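p53-null H1299 cells stably carrying temperature-sensitive p53-A138V and a BP100-luciferase reporter were pinned with compounds (4-point, 1:5 series) and held 24 hrs at 37 deg C. Luminescence was read 10 min after detection reagent.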", "values": [
      {"smiles": "CC(C)(C)c1ccc(C(=O)Nc2ccc(CC(=O)O)cc2)o1", "Potency": "inactive"},
      {"smiles": "Cc1cc(C(=O)c2cnc(/N=C/N(C)C)s2)cc(C)c1O", "Potency": "inactive"},
      {"smiles": "CCn1cnc2sc(-c3ccccc3)cc2c1=O", "Potency": "inconclusive [activator, partial curve, poor fit]"},
      {"smiles": "O=C(NCc1ccccc1)c1cc2ccccc2oc1=O", "Potency": "inconclusive [activator, partial curve, poor fit]"},
      {"smiles": "S=C(c1ccc(-c2cccc(Cl)c2)o1)N1CCCCC1", "Potency": "inconclusive [activator, partial curve, poor fit]"},
      {"smiles": "CN1CCN(Cc2nc3ccccc3c(=O)n2Cc2nc(-c3ccc([N+](=O)[O-])cc3)cs2)CC1", "Potency": "inconclusive [activator, single point]"},
      {"smiles": "N#CC(C#N)=C1C=CC=CN1/C(=C\\c1ccccc1)C(=O)c1cccs1", "Potency": "inactive"},
      {"smiles": "O=C(COC(=O)c1ccc(O)cc1)Nc1ccc2c(c1)OCO2", "Potency": "inactive"},
      {"smiles": "COc1ccc(-n2c(N)c(C(=O)NCc3ccco3)c3nc4ccccc4nc32)c(OC)c1", "Potency": "inconclusive [activator, full curve, poor fit]"},
      {"smiles": "CC1(C)CC(NC(=O)c2ccccc2)CC(C)(C)N1", "Potency": "inconclusive [activator, single point]"},
      {"smiles": "Cc1cc(C(=O)NC2CCCc3c2cnn3-c2ccccc2F)nc(C)n1", "note": "(stereo not given)", "Potency": "inactive"},
      {"smiles": "Cc1ccc(C2C(C(=O)c3cc4ccccc4o3)=C(O)C(=O)N2c2cc(C)on2)cc1", "note": "(stereo not given)", "Potency": "inactive"},
      {"smiles": "CC(C)NC(=O)NC(=O)COc1ccc(Br)cc1Br", "Potency": "inconclusive [activator, partial curve, poor fit]"},
      {"smiles": "O=C1c2cccc3c(N4CCCCC4)ccc(c23)C(=O)N1CCO", "Potency": "inconclusive [activator, single point]"},
      {"smiles": "Cn1cccc1CNC(=O)Nc1ccc(Cl)cc1", "Potency": "inconclusive [activator, partial curve, poor fit]"},
      {"smiles": "CCC(=O)NC(Cc1ccccc1)c1nc2ccccc2[nH]1", "note": "(stereo not given)", "Potency": "inconclusive [activator, partial curve]"},
      {"smiles": "Cc1cc(C)nc(N(C#N)CC(=O)Nc2ccccc2)n1", "Potency": "inconclusive [activator, single point]"},
      {"smiles": "O=C(Nc1ccccn1)c1ccc(COc2ccccc2Cl)o1", "Potency": "inconclusive [activator, partial curve, poor fit]"},
      {"smiles": "COc1cccc2c(=O)cc(C)n(CC(=O)Nc3ccc(C)c(C)c3)c12", "Potency": "inactive"},
      {"smiles": "O=C(NCc1csc(-c2ccccc2)n1)c1ccco1", "Potency": "inconclusive [activator, full curve, poor fit]"},
      {"smiles": "S=C(NCc1ccccc1)NC1CCCCC1", "Potency": "inactive"},
      {"smiles": "CCN(CC)CCCNC(=S)Nc1ccc(Br)cc1", "Potency": "inconclusive [activator, single point]"},
      {"smiles": "Cc1ccc(O)c(N=Cc2sc3ccccc3c2Cl)c1", "Potency": "inconclusive [activator, partial curve, poor fit]"},
      {"smiles": "CCSc1nn2c(=O)c3ccccc3nc2s1", "Potency": "inconclusive [activator, partial curve, poor fit]"},
      {"smiles": "CN(Cc1ccno1)Cc1cn(Cc2ccccc2)nc1-c1ccc2c(c1)OCO2", "Potency": "inactive"},
      {"smiles": "COc1ccccc1C1C2=C(N=C3SCC(=O)N31)c1ccccc1CC2", "note": "(stereo not given)", "Potency": "inconclusive [activator, single point]"},
      {"smiles": "O=C(O)c1ccc(NS(=O)(=O)c2cccc(C(=O)Nc3ccc(Br)cc3)c2)cc1", "Potency": "inconclusive [activator, single point]"},
      {"smiles": "COc1ccccc1OCc1ccc(C(=O)Nc2ccccc2)cc1", "Potency": "inconclusive [activator, full curve, poor fit]"},
      {"smiles": "CCN(CC)CCN(C(=O)c1ccc2c(c1)OCCO2)c1nc2ccc(C)cc2s1", "Potency": "inconclusive [activator, single point]"},
      {"smiles": "CCCn1ncc(CN2CCC(C(=O)Nc3cccc(-c4cccc(F)c4)c3)CC2)c1C", "Potency": "inconclusive [activator, full curve, poor fit]"},
      {"smiles": "O=C(NCC(=O)N1CC=C(c2ccccc2)CC1)c1ccc(OC(F)F)cc1", "Potency": "inactive"},
      {"smiles": "Cc1cc(C(=O)N/N=C/c2ccc3ccccc3c2)n[nH]1", "Potency": "inactive"},
      {"smiles": "CCOC(=O)c1c(C)[nH]c(C(=O)Nc2ccc3c(c2)OCO3)c1C", "Potency": "inconclusive [activator, partial curve, poor fit]"},
      {"smiles": "COc1nc(-c2ccccc2)ccc1-c1noc(-c2ccccc2F)n1", "Potency": "inconclusive [activator, partial curve, poor fit]"},
      {"smiles": "O=C1CCCN1CCCNC(=S)Nc1ccc(F)c(Cl)c1", "Potency": "inconclusive [activator, single point]"},
      {"smiles": "O=[N+]([O-])c1ccc(O)c(C2=NNC(c3ccccc3F)C2)c1", "note": "(stereo not given)", "Potency": "inconclusive [activator, full curve, poor fit]"},
      {"smiles": "COCCNC(=O)/C(C#N)=C/c1c(N2CCN(c3ccc(OC)cc3)CC2)nc2c(C)cccn2c1=O", "Potency": "inactive"},
      {"smiles": "COc1ccc([N+](=O)[O-])cc1NC(=O)C1CCCCC1C(=O)O", "note": "(stereo not given)", "Potency": "inconclusive [activator, full curve, poor fit]"},
      {"smiles": "COCCCNC(=O)CC1C[C@H](C(=O)N2CCOCC2)[C@@]2(CCC3CCCC3)c3[nH]c4ccc(OC)cc4c3CCN2C1=O", "note": "(stereo not given in full)", "Potency": "inactive"},
      {"smiles": "Cc1cccc(N/C(N)=N/c2nc(C)cc(C)n2)c1", "Potency": "inactive"},
      {"smiles": "CN1CCC(N(C)C(=O)c2ccc(Cl)c(S(=O)(=O)N3CCOCC3)c2)CC1", "Potency": "inactive"},
      {"smiles": "COC(CNC(=O)c1cnn2c(C)c(Cc3ccccc3)c(C)nc12)OC", "Potency": "inactive"},
      {"smiles": "O=C(Nc1ccc(F)cc1)NC1CCCCC1", "Potency": "inconclusive [activator, single point]"},
      {"smiles": "CCCNC(=S)NCc1ccc(Cl)cc1", "Potency": "inconclusive [activator, single point]"},
      {"smiles": "CCCN1CCN(CC(=O)Nc2nnc(CC)s2)CC1", "Potency": "inconclusive [activator, single point]"},
      {"smiles": "Brc1ccc(NC2=Nc3ccccc3CC2)cc1", "Potency": "inconclusive [activator, partial curve, poor fit]"},
      {"smiles": "O=C(N/N=C/c1ccc(Br)o1)c1ccc2c(c1)OCCO2", "Potency": "inconclusive [activator, partial curve, poor fit]"},
      {"smiles": "O=C(CN1CCSC1=NCc1ccccc1)c1ccc(Cl)c(Cl)c1", "Potency": "inconclusive [activator, partial curve, poor fit]"},
      {"smiles": "O=C1c2ccccc2C(=O)c2cc(NC(=O)C3CC3)ccc21", "Potency": "inactive"},
      {"smiles": "C=CCn1c(SC)nc2sc3c(c2c1=O)CCc1ccccc1-3", "Potency": "inconclusive [activator, single point]"},
      {"smiles": "CC(=O)c1cnc(Nc2cccc(C)c2)s1", "Potency": "inconclusive [activator, partial curve, poor fit]"},
      {"smiles": "Cc1cc(NC(=O)CSc2nc3ccsc3c(=O)n2NC(=O)c2ccccc2)no1", "Potency": "inconclusive [activator, partial curve, poor fit]"},
      {"smiles": "Cc1ccc(-c2cc(N)nc(-c3ccccc3)c2)cc1", "Potency": "inconclusive [activator, partial curve]"},
      {"smiles": "O=C(NCC(=O)N1CCN(c2ncccn2)CC1)c1ccc(F)cc1", "Potency": "inconclusive [activator, partial curve, poor fit]"},
      {"smiles": "Fc1cnc(N2CCN(c3ccccc3)CC2)nc1N1CCN(c2ccccc2)CC1", "Potency": "inactive"},
      {"smiles": "O=C1CCC(C(=O)N2CCCC2)CN1CCc1cccc(F)c1", "note": "(stereo not given)", "Potency": "inconclusive [activator, single point]"},
      {"smiles": "O=C(CCN1CCN(C(=O)c2ccccc2)CC1)c1ccc(Br)cc1", "Potency": "inactive"},
      {"smiles": "CCOc1ccc(-c2c(C#N)c(N)nc3sc(C(=O)c4ccccc4)c(N)c23)cc1", "Potency": "inactive"},
      {"smiles": "C/C(=N/NC(=O)c1ccc(C)s1)c1cccc(NC(=O)c2ccoc2C)c1", "Potency": "inactive"},
      {"smiles": "O=C(Nc1ccc(Cl)cn1)c1ccccc1[N+](=O)[O-]", "Potency": "inconclusive [activator, partial curve, poor fit]"},
      {"smiles": "Clc1ccc(-c2cnc3ccccc3n2)cc1", "Potency": "inconclusive [activator, partial curve, poor fit]"},
      {"smiles": "CCN(CC(=O)Nc1ccc2c(c1)OCCO2)C(=O)/C=C/c1cccc(OC)c1OC", "Potency": "inconclusive [activator, partial curve, poor fit]"},
      {"smiles": "CCN(c1ccccc1)S(=O)(=O)c1ccc(C(=O)N(CCN(C)C)c2nc3c(F)cc(F)cc3s2)cc1", "Potency": "inconclusive [activator, partial curve, poor fit]"},
      {"smiles": "Cc1nc2ccc(NC(=O)c3ccc(Cl)c([N+](=O)[O-])c3)cc2s1", "Potency": "inconclusive [activator, partial curve, poor fit]"},
      {"smiles": "O=C(Nc1cnc2ccccc2c1)N1CCOCC1", "Potency": "inconclusive [activator, partial curve, poor fit]"},
      {"smiles": "CCCCc1nc2cc(C(=O)N3CCCC3)ccc2o1", "Potency": "inactive"},
      {"smiles": "Clc1ccc(C[n+]2csc3ccccc32)cc1", "Potency": "inconclusive [activator, partial curve, poor fit]"},
      {"smiles": "Cc1ccc(NC(=O)N2CCN(C(=O)c3ccco3)CC2)cc1Cl", "Potency": "inactive"},
      {"smiles": "O=C(COc1ccc(Cc2ccccc2)cc1)c1ccc(F)cc1", "Potency": "inconclusive [activator, full curve, poor fit]"},
      {"smiles": "O=c1c2ccccc2oc2ccc(Oc3ccccc3)cc12", "Potency": "inactive"}
    ]}
  ]
}
